Test results as given in article PMC4336329 (PLoS ONE, 2015).
The whole screen tested about 310,000 compounds, of which about 2,200 (0.71%) showed an effect of 50% or more. Effects have a minus sign here. This is one part of the list.

biological target: human ether-à-go-go-related gene (hERG) potassium channel (human, UniProt Q12809); test: primary screen, population patch clamp on CHO cells stably expressing hERG
Sequence (Q12809 whole entry, looked up): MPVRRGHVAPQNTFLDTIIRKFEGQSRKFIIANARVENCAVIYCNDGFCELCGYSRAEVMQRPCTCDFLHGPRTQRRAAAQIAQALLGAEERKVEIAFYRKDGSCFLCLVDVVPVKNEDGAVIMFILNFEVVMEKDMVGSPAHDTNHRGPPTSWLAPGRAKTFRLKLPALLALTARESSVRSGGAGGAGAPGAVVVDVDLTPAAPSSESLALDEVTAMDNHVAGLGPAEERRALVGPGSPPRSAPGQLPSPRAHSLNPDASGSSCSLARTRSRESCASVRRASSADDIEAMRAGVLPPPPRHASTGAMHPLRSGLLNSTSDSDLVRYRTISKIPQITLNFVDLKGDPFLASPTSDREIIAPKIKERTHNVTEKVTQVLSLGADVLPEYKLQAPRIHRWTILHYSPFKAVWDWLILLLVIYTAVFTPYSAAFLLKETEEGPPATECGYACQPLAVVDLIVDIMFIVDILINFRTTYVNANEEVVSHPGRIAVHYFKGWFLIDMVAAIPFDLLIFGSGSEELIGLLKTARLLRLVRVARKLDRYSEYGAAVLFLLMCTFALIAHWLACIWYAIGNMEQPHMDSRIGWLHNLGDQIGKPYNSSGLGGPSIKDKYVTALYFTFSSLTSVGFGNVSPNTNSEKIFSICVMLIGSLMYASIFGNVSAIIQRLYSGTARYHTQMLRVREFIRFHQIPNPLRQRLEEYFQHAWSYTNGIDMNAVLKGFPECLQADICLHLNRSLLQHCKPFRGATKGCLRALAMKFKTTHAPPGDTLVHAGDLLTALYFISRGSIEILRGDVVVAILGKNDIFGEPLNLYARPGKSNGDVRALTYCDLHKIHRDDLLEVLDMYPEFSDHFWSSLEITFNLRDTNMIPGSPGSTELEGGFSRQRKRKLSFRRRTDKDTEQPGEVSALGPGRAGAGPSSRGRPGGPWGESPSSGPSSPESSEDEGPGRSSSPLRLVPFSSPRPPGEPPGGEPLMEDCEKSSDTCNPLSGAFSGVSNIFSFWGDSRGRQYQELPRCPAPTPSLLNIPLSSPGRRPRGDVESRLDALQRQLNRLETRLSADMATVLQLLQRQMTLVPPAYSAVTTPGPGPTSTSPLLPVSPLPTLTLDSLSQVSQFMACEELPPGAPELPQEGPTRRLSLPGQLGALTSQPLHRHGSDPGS

Row | Compound | hERG current change (%, negative = inhibition) at 1uM [%]
1 | CC(=O)Nc1ccc(SCc2c(C)noc2C)cc1 | 14.3
2 | O=C(Cn1cnc2ccc(Cl)cc2c1=O)c1cccs1 | 10.2
3 | CCNC(=O)C(=O)NCC1OCCCN1S(=O)(=O)c1ccc(F)cc1C (stereo not drawn) | 7.65
4 | C=CCn1c(SCC(=O)c2c(N)n(CCC)c(=O)n(C)c2=O)nc2sc(CC)cc2c1=O | 8.51
5 | N#CC1=C(N)NC(SCC(=O)c2ccc(Cl)cc2)=C(C#N)C12CCCC2 | 1.61
6 | Cc1ccc(NC(=O)CN(C)C(=O)CSc2nc(C)cs2)cc1 | 3.7
7 | COCC(C)n1c(C)cc(C(=O)Cn2nc(C(=O)O)c3ccccc3c2=O)c1C (stereo not drawn) | -0.976
8 | CC1(C)C2CC=C(/C=N/NC(=O)C3CC3)C1C2 (stereo not drawn) | 10.6
9 | O=C(O)c1cccc(NC(=O)C23CC4CC(C2)CC(n2cnc(Cl)n2)(C4)C3)c1 | -10.2
10 | COC(=O)c1cc2occc2n1CC(=O)Nc1ccc(OC)c(OC)c1 | 11
11 | Cc1ccccc1OCCC(=O)OCC(=O)NC(C)c1ccccc1 (stereo not drawn) | -0.773
12 | O=C(NCc1ccccc1F)C1CCC(=O)N(Cc2ccc(Cl)cc2)C1 (stereo not drawn) | -7.43
13 | CCn1c(-c2c(Cl)c(C)nn2C)n[nH]c1=S | 5.26
14 | Cc1cc(CN2CCC(n3nccc3NC(=O)c3ccccc3Cl)CC2)cc(C)c1O | -64.4
15 | Cc1csc(CCc2nc(C)cs2)n1 | 15
16 | CCn1ncc(Br)c1C(=O)Nc1ccc(F)cc1F | 14.1
17 | Cc1cc2c(cc1S(=O)(=O)Nc1c(C)cccc1C)n(C)c(=O)c(=O)n2C | 1.4
18 | NC(=O)c1ccc(NC(=O)CCN2C(=O)c3ccccc3C2=O)cc1 | 10.8
19 | COC(=O)c1ccc2c(=O)n(CCCN3CCCC3=O)c(=S)[nH]c2c1 | -7.34

Row | Compound | hERG current change (%, negative = inhibition) at 1uM [%]
20 | CC(=O)Nc1ccc(NC(=O)CSc2nnc(NC(=O)c3cccc(F)c3)s2)cc1 | 17.6
21 | O=C(O)CCC(=O)N(Cc1cccs1)Cc1cccs1 | 4.24
22 | Cc1nc(-c2ccccc2Cl)sc1C(=O)/C=C/N(C)C | 12.7
23 | COc1ccc2c(c1OC)C(=O)N(c1nc(SC)n[nH]1)C2=O | 15.2
24 | Cc1cccc(NC(=S)NNC(=O)c2ccco2)c1 | 6.7
25 | CCCn1c(C(O)c2cc(OC)ccc2OC)nc2ccccc21 (stereo not drawn) | 0.412
26 | COc1cc(NC(=O)COC(=O)CNC(=O)C23CC4CC(CC(C4)C2)C3)cc(OC)c1 | 14.6
27 | CCOc1c2ccc(C(=O)NCc3ccc(C)cc3)cc2nn1CCOC | 15.3
28 | Cc1onc(-c2c(F)cccc2Cl)c1C(=O)OCn1nnc2ccccc2c1=O | 14.9
29 | COc1ccc(NC(=O)COC(=O)Cn2c(C)nc3ccccc32)cc1OC | 14.4
30 | Clc1cccc(CNCCc2c[nH]c3ccccc23)c1.O=C(O)C(=O)O | 7.52
31 | Cc1ccc(NC(=O)N2CCC(C(N)=O)CC2)cc1 | 9.5
32 | CCCc1cc(=O)n2[nH]c(C)nc2n1 | 9.03
33 | O=C(CNC(=O)c1ccc(Cl)cc1)OCn1nnc2ccccc2c1=O | 10.7
34 | Brc1ccc(OCCOCCOc2cccc3cccnc23)cc1 | 0.0171
35 | CN(C)Cc1c(C(=O)N/N=C/c2cccnc2)nnn1-c1nonc1N | 10.4
36 | CCCCSc1nc(C)[nH]c1[N+](=O)[O-] | 13.9
37 | O=C1CC(C(=O)N2CCc3ccccc32)CN1c1ccc(F)cc1 (stereo not drawn) | -17.9
38 | O=[N+]([O-])c1ccc(-c2nn(-c3ccccc3)cc2/C=N/n2c(-c3cccs3)n[nH]c2=S)cc1 | 15.9

Row | Compound | hERG current change (%, negative = inhibition) at 1uM [%]
39 | CCOC(=O)C1CSC(CC(=O)Nc2ccc(OCC)cc2)C(=O)N1 (stereo not drawn) | -5.01
40 | COc1ccccc1NC(=O)NC1(C(=O)N2CCC(C)CC2)CCCCC1 | 17.8
41 | COCCn1c(SCC(=O)NCCc2ccccc2)nc2c([nH]c3ccccc32)c1=O | 20.6
42 | COc1cc([C@@H]2CC=C(C(=O)O)[C@H](c3ccc(Cl)cc3)N2S(=O)(=O)c2ccc(C)cc2)cc(OC)c1OC | 4.44
43 | O=c1[nH]c(CN2CCN(Cc3ccccc3)CC2)nc2scc(-c3ccccc3)c12 | -2.35
44 | CC(=O)Nc1ccc(S(=O)(=O)NNC(=O)COc2cccc3ccccc23)cc1 | 8.5
45 | CNC[C@@H](CC1CCCCC1)NC[C@H](CC(C)C)NCCc1cccc(C(F)(F)F)c1 | 7.55
46 | COc1ccccc1CNC(=O)c1ccc2c(=O)n3c(nc2c1)CCCCC3 | 8.59
47 | CCOC(=O)C1=C(C)Nc2[nH]c(=O)[nH]c(=O)c2C1c1cccs1 (stereo not drawn) | 2.68
48 | COc1ccc(-n2c(=O)cc(N3CCN(c4ccccc4F)CC3)[nH]c2=O)cc1 | -0.226
49 | NS(=O)(=O)c1ccc(CCNC(=O)Cc2ccc(S(=O)(=O)N3CCCC3)s2)cc1 | 14.9
50 | O=C(NC1CCCCC1)C1CCCN1C(=O)Nc1ccccc1 (stereo not drawn) | 16.1
51 | O=C(c1cc(COc2ccc(F)cc2Cl)on1)N1CCCCCCC1 | 8.65
52 | CC(=O)C(C(C)=O)C(NC(=O)c1cccnc1)(C(F)(F)F)C(F)(F)F | 1.23
53 | CCCOC(=O)c1ccc(NC(=O)c2nc3nc(C)cc(C)n3n2)cc1 | 5.72
54 | O=C(/C=C/c1cccc([N+](=O)[O-])c1)N1CCN(Cc2ccccc2)CC1 | -20.3
55 | CC1CCC2(CC1)NC(=O)N(CC(=O)c1cccn1C)C2=O (stereo not drawn) | 13.9
56 | O=C(O)Cn1nnc(COc2ccccc2)n1 | 12.4
57 | O=C(OCC1OC(n2cc(Br)c(=O)[nH]c2=O)C(Br)C1O)c1ccccc1 (stereo not drawn) | 11.7
